In all, about 48,000 compounds went through this assay and about 120 (0.25%) were called active. Another 4% or so got no clear call; they are omitted. The call rests on the fitted dose curve; in most records, active means well fitted activation curve with a large enough effect; inconclusive means small, poorly fitted or top-dose-only effect, or another doubt; inactive means no such curve, though single readings can be large or run the other way. The list shows a part of the results.
assay: Primary qHTS for Identification of Small Molecule Activators of Huntingtin-Antisense Promoter Activity; settings: HEK293 HTT-AS promoter firefly luciferase reporter, 24 h; series mostly up to 57.5 µM; activity change, positive = activation: at the top concentration; further: nearly all actives have a fitted effect of over 55% in size
Procedure, shortened: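 HEK293 luciferase promoter-reporter cells (2,500/well) plated 24 h, then compounds added at up to 57.5 uM final for 24 h at 37 °C. Firefly luminescence by Dual-Glo, normalized to vehicle (0%) and zero RLU (-100%).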

Activity change, positive = activation, inactive:
O=C(NCCc1nc2ccccc2n1Cc1ccccc1F)c1ccc(F)cc1 -29.5%
CCOc1ccc(-n2ccnc2SCC(=O)Nc2cc(C)ccc2C)cc1 -23.7%
O=C(C1CCC1)N1CCCc2cc(S(=O)(=O)N3CCN(c4cccc(Cl)c4)CC3)ccc21 -16.3%
CCOCc1cc(CN2CCN(c3cccc(C(F)(F)F)c3)CC2)c(O)c2ncccc12 -35.6%
COc1c(OCCCN2CCOCC2)ccc2c3n(c(=NC(=O)c4cnc(N)nc4)nc12)CCN3 -40.7% [at 25.1 µM, percent change from vehicle, -100% = no light]
COc1cccc(-n2c(SCc3cccc(C)c3)nc3c([nH]c4ccccc43)c2=O)c1 -24.5%
Cc1ccc(C)c(NC(=O)C(=O)NCCCN2CCOCC2)c1 -4.42%
CCOc1ccccc1NC(=O)COC(=O)CC(C)(C)CC1=NS(=O)(=O)c2ccccc2N1 -42.5%
Cc1onc(-c2ccccc2Cl)c1C(=O)Oc1ccc(Cl)cc1Cl -11.2%
CN(c1ccc(F)cc1)S(=O)(=O)N1CCCC(C(=O)NCc2ccccc2Cl)C1 (configuration not stated) -27.1%
CCN(CC)S(=O)(=O)c1ccc(OC)c(NC(=O)c2sc3ccccc3c2Cl)c1 -12.1%
Cc1ccc2c(c1)c1c(c(=O)n(Cc3ccccc3)c(=O)n1Cc1ccccc1F)n2C -15.4%
Cc1cccc(NC(=O)c2oc3ccccc3c2NC(=O)c2cc(=O)c3ccccc3o2)c1 0%
CCOc1ccc(N2CC(NC(=O)c3ccc(Cl)cc3)CC2=O)cc1 (configuration not stated) -11.6%
CCOC(=O)N1CCc2c(sc3c2c(=O)n(Cc2ccccc2)c(=O)n3CC(=O)Nc2ccc(F)cc2)C1 -22.8%
NC(CO)(CO)CO -0.284%
Nc1ccc(C(=O)c2cc3c(ccc4ccccc43)[nH]2)cc1 -25.7%
CNC(=O)CN1C(=O)COc2ccc(S(=O)(=O)N3CCCCCC3)cc21 -10%
O=C(Nc1cc(Cl)cc(Cl)c1)c1cc(S(=O)(=O)NC2CCCC2)ccc1F -32.6%
COc1ccc(CN(C)c2ccc(-c3nc(-c4ccc(OC)c(OC)c4)no3)cc2[N+](=O)[O-])cc1 -6.33%
Cc1cccc(N2CCN(C(=O)C3CCN(C(=O)c4cc5sccc5n4C)CC3)CC2C)c1 (configuration not stated) -55.3%
CCC(C)S(=O)(=O)c1oc(-c2cccs2)nc1S(=O)(=O)c1ccccc1 (configuration not stated) -93.6%
COc1cn(CC(=O)Nc2cc(C)cc(C)c2)c(CN2CCCCC2)cc1=O -1%
CN1CCc2nc3sc(C(=O)c4ccc(F)cc4)c(N)c3cc2C1 27.7%
CCOc1ccccc1CNCc1c(C(=O)O)c(C)n(Cc2ccc(C)cc2)c1C -10.2%
CCOc1ccc(NC(=O)CN(Cc2ccccc2)S(=O)(=O)c2ccc3nc(C)sc3c2)cc1 -30.2%
CN1C(=O)c2cccc3c(S(=O)(=O)Nc4cccc(C(=O)O)c4)ccc1c23 -10.6%
CCOc1ccc(CCNC(=O)Cn2c(-c3cccs3)cc3ccccc32)cc1 -23%
COc1ccc(C(=O)c2cn(CC(=O)Nc3cc(OC)cc(OC)c3)c3ccc(OC)cc3c2=O)cc1 -15.9%
COC(=O)c1ccccc1NC(=O)Cn1c(=O)n(CCC(=O)NCc2ccc3c(c2)OCO3)c(=O)c2ccccc21 -10.7%
Cc1ccc(-c2cn3nc(N4CCCC(C(=O)NCc5ccccc5F)C4)sc3n2)cc1 (configuration not stated) -35.6%
CC1=C(C(=O)OC2CCCC2)C(c2c(F)cccc2Cl)CC(=O)N1 (configuration not stated) -33.1%
Cc1ccc(Cn2nc3n(c2=O)-c2cc(Cl)ccc2OC3)cc1 -5.63%
Cc1ccc(-c2csc(-c3c(N)c(C(=O)c4ccc5c(c4)OCO5)n4ccccc34)n2)cc1 12%
COc1ccc(-n2c(-c3cccc(F)c3)nc3c(cnn3-c3ccc(C)cc3)c2=O)cc1 -29.1%
CCOC(=O)c1c(S(=O)(=O)N2CCC(C(=O)NCc3cccc(OC)c3)CC2)c(C)n(C)c1C 12.2%
Cc1cccc(N(C)C(=O)Cn2c(=O)oc3cc(S(=O)(=O)N4CCCCC4)ccc32)c1 -14.3%
COc1ccc(-c2nc3ccccc3o2)cc1NC(=O)Cc1ccc(Cl)cc1 22.9%
O=C(CNC(=O)c1ccc(F)cc1)OCc1cc(=O)n2ccsc2n1 -12.1%
COc1ccc(C(=O)Nc2ccc3oc(-c4cccc5c(Br)cccc45)nc3c2)cc1 13.8% [at 11.5 µM, percent change from vehicle, -100% = no light]
CCN1CCc2c(sc(NC(=O)c3ccc(S(=O)(=O)N4CCCC(C)C4)cc3)c2C(=O)OC)C1 (configuration not stated) -24.1%
Cc1ccccc1Cn1c(CN2CCC(C(=O)NCc3ccc(Cl)cc3)CC2)cc2ccccc21 -5.74%
Cc1c(Cl)cccc1NC(=O)C(=O)NCCc1csc(-c2ccc(C(F)(F)F)cc2)n1 -3.02%
CCCCN(C)C(=O)c1ccc2c(=O)n3nc(Nc4cc(C)ccc4C)sc3nc2c1 -22.9%
O=S1(=O)c2ccccc2N(Cc2ccccc2F)c2ccccc21 -13.3%
COc1ccc(CCNC(=O)c2ccc(-n3c(C)cc4c3CCC(C)C4)cc2)cc1OC (configuration not stated) 9.21%
Cc1cc(C)c(OCC(=O)N(Cc2ccc(N(C)C)cc2)Cc2ccco2)c(C)c1 -33.3%
O=C(NCc1ccc2c(c1)OCO2)c1ccc2c(c1)N(Cc1c(F)cccc1Cl)C(=O)c1ccccc1S2 -17.8%
CCOc1ccc(NS(=O)(=O)c2ccc3c(c2)NC(=O)CCS3)cc1 -11.9%
CCc1ccc(CNC(=O)C2CCN(c3nn4cc(-c5ccc(OC)cc5)nc4s3)CC2)cc1 7.44%
COc1ccc(C2=NC(c3ccccc3)=Nc3ccc(C)cc3N2)cc1 -16.9%
COC(=O)c1ccccc1NC(=O)c1ccc(CN2CC(=O)N3CCCCC3C2=O)cc1 (configuration not stated) -15.1%
COc1ccccc1N1CCN(CC(O)COc2ccc(Cl)c(C)c2)CC1 (configuration not stated) 16.3% [at 11.5 µM, percent change from vehicle, -100% = no light]
CN1CCN(C(=O)c2ccc3c(c2)N(Cc2ccc(F)cc2)C(=O)c2ccccc2S3(=O)=O)CC1 -5.42%
COc1ccc(NC(=O)CSc2nnc(-c3ccncc3)n2-c2ccccc2)cc1 -15.3%
CCC(C)NC(=O)c1c2c(nc3ccccc13)C(=O)N(C1CCCCC1)C2 (configuration not stated) 9%
CCOC(=O)c1cc(S(=O)(=O)Nc2ccccc2)[nH]n1 -10.1%
O=C(CSc1n[nH]c(-c2ccc(F)cc2)n1)N1CCN(c2ccc(F)cc2)CC1 -23.2%
NC(=O)c1cc(S(=O)(=O)NCc2cccc(Br)c2)cs1 -9.01%
COC(=O)c1ccc(NC(=O)Cn2c(=O)oc3ccccc32)cc1 9.25% [at 11.5 µM, percent change from vehicle, -100% = no light]
Cc1ccc(CNC(=O)c2ccc3c(c2)CCN3S(=O)(=O)c2ccc(Br)cc2)cc1 -1.86%
COc1ccc(C2CC(=O)c3cc(-c4nc(-c5cccc([N+](=O)[O-])c5)cs4)c(=O)n(-c4ccccc4N)c3C2)cc1 (configuration not stated) -8.68%
Clc1ccc(C(Cn2ccnc2)OCc2c(Cl)cccc2Cl)c(Cl)c1 (configuration not stated)
CCn1c(SCC(=O)Nc2cc(C)ccc2F)nnc1-c1ccccc1O 0.814%
COc1ccc(N2CC(NC(=O)C3CCCCC3)CC2=O)cc1 (configuration not stated) -4.68%
CCN(c1ccc(OC)cc1)S(=O)(=O)c1ccc2[nH]c3c(c2c1)CCCCC3 -55.3%
CCOC(=O)CNC(=O)N1CCN(S(=O)(=O)c2ccc3c(ccn3C)c2)CC1 -7.61%
COc1ccc(CC(=O)N2CC(=O)Nc3ccc(F)cc3C2c2ccccc2)cc1 (configuration not stated) 0.587%
CC(=O)c1ccc(NC(=O)C2CCN(S(=O)(=O)c3ccc4[nH]c5c(c4c3)CCCCC5)CC2)cc1 -28.8%
Cc1ccccc1CNC(=O)Cn1c(=O)c2cccn2c2cccnc21 -9.6%
COc1ccccc1CNC(=O)c1ccc(N2CCCC2)c(NC(=O)NCc2ccc(C)cc2)c1 -18.3%
CCCOc1ccc(C2c3c(oc4ccccc4c3=O)C(=O)N2c2nnc(C(C)C)s2)cc1 (configuration not stated) -5.69%
Cc1ccc(-c2nc(CSc3nnc(C)n4c3cc3occc34)c(C)o2)cc1 -6.32%
Cc1ccc(NC(=O)CN(Cc2ccccc2)S(=O)(=O)c2ccc3nc(C)sc3c2)c(C)c1 -23%
Cc1cccc2nc(-c3ccccn3)c(Nc3ccccc3)n12 -41.3%
CN(C)c1ccc(CNC(=O)CCCN2C(=O)c3cccnc3Oc3ccc(Cl)cc32)cc1 -5.58%
COc1ccc(CNC(=O)c2c(O)nc3c(C)cccn3c2=O)cc1 -2.31%
CCCCOC(=O)c1ccc(-n2nnc3c(sc4nc(C)cc(C)c43)c2=O)cc1 22.9%
CC(C)Cn1cc(NC(=O)N2CCN(c3cccc(C(F)(F)F)c3)CC2)c2ccccc2c1=O -25.1%
O=S(=O)(NCCc1nnc2ccc(SCc3ccccc3Cl)nn12)c1ccccc1 -27.6%
Cc1cc(N2CCC(C)CC2)nc2ccc(NC(=O)Cc3ccccc3Br)cc12 -24.4%
COc1cc2nc(Nc3cccc(F)c3)nc(N)c2cc1OC -10.2%
CCOc1ccc(-c2nc(-c3ccccc3)c(-c3ccccc3)[nH]2)cc1OCC -36.6%
CCOC(=O)N[C@H](Cc1c[nH]c2ccccc12)C(=O)Nc1cccc(Cl)c1 -15.7%
COc1ccc(OC)c(NC(=O)c2nc(S(=O)(=O)Cc3ccc(F)cc3)ncc2Cl)c1 -94%
CC(C)n1nc(-c2cc3cc(O)ccc3[nH]2)c2c(N)ncnc21 -43.6%
CCc1ccc(C2CC(=O)Nc3c2c(=O)n(C)c2ncnn32)cc1 (configuration not stated) -7.13%
CCOCCCN(Cc1ccco1)C(=O)c1cc2c(s1)-c1c(C)cccc1OC2 -31.1%
COc1ccc(C(=O)c2cn(CC(=O)Nc3cc(C)ccc3C)c3nc(C)ccc3c2=O)cc1 -4.24%
CC(C)Oc1ccc(CNC(=O)C2=Cc3ccccc3OC2)cc1 -0.637%
NC(=O)C1CCN(c2csc3ccc(F)cc3c2=O)CC1 9.64%
CCn1c(CN2CCN(C)CC2)nc2cc(NC(=O)c3ccc([N+](=O)[O-])cc3)ccc21 0.934%

Reference: PubChem BioAssay AID1508624 (National Center for Advancing Translational Sciences (NCATS), 2021)
